Read-outs that look alike come from different tables or passages of the source.
Columns and labels:
[1] = tested on: cucumber Fusarium wilt
Procedure: (§1) Seed Treatment Test (Cucumber Fusarium Wilt)
(§2) 10 g of moistened seeds (seeds inoculated with cucumber Fusarium wilt) of test plants (Sagamihanpaku) were coated with wettable powders containing the compound of the present invention so as the application rate to be 0.1% a.i. The seeds (10 grains) treated by the above method were sown and the disease severity was observed after 3 weeks. Tests were carried out in duplicate.
(§3) Here, the disease severity of the test plants was observed by the naked eyes and evaluated in accordance with the following criteria, and expressed (in 4 levels of 0 to 3 in which the disease severity of the untreated plants was 3).

[2] = tested on: cucumber Fusarium wilt; remark: listed apart in the source
Procedure: Soil Disease Prevention Test (Cucumber Fusarium Wilt)
Seeds of pot-cultivated test plants (Sagamihanpaku) were sown to an inoculated soil which was adjusted so that cucumber Fusarium wilt spores were 1×10^5 per 1 g of soil. At the time of sowing, the solution of wettable powders containing the compound of the present invention dissolved in water was drenched into the soil at the rate of 10,000 g/ha. The disease severity was observed 3 weeks after treatment. Tests were carried out in duplicate.
Here, the disease severity of the test plants was observed by the naked eyes, judged in accordance with the following criteria, and expressed (in 4 levels of 0 to 3 in which the disease severity of the untreated plants was 3).

[3] = tested on: cucumber Fusarium wilt; remark: listed apart in the source
Procedure: as §1
as §2, with “seeds” for “seeds (seeds inoculated with cucumber Fusarium wilt)”, “(cultivar of cucumber: Sagamihanpaku)” for “(Sagamihanpaku)”, “sown in the soil inoculated with cucumber Fusarium wilt (1×10^5 spores),” for “sown”
as §3

[4] = tested on: wheat Fusarium blight
Procedure: 20 g of moistened seeds (seeds inoculated with wheat Fusarium blight) of test plants (Nourin 61 gou) were coated with wettable powder containing the compound of the present invention so as the application rate to be 0.1% a.i. The seeds (30 grains) treated by the above method were sown, and the disease severity was observed after 2 weeks. Tests were carried out in duplicate.
as §3

[5] = cucumber (Sagamihanpaku) seeds inoculated with cucumber Fusarium wilt, seed coating 0.1% a.i., observed after 3 weeks, untreated = 3
[6] = cucumber (Sagamihanpaku), inoculated soil 1×10^5 spores per 1 g, soil drench at sowing 10,000 g/ha, observed 3 weeks after treatment, untreated = 3
[7] = cucumber (Sagamihanpaku) seeds coated 0.1% a.i., sown in soil inoculated with cucumber Fusarium wilt (1×10^5 spores), observed after 3 weeks, untreated = 3
[8] = wheat (Nourin 61 gou) seeds inoculated with wheat Fusarium blight, seed coating 0.1% a.i., observed after 2 weeks, untreated = 3

Measured: disease severity

Cc1cccc2cc(C3=NC(C)(C)C(C)(C)c4c(F)cccc43)cnc12 [Compound No. 1-919, 3-(5-fluoro-3,3,4,4-tetramethyl-3,4-dihydroisoquinolin-1-yl)-8-methylquinoline]
0: [1]; in vivo | [2]; in vivo | [3]; in vivo | [4]; in vivo

CC1(C)N=C(c2cnc3ccccc3c2)c2cccc(F)c2C1(C)C [Compound No. 1-866, 3-(5-fluoro-3,3,4,4-tetramethyl-3,4-dihydroisoquinolin-1-yl)quinoline]
0: [1]; in vivo | [2]; in vivo | [3]; in vivo | [4]; in vivo

CC1(C)N=C(c2cnc3ccccc3c2)c2cccc(F)c2C1(F)F [Compound No. 1-930, 3-(4,4,5-trifluoro-3,3-dimethyl-3,4-dihydroisoquinolin-1-yl)quinoline]
0: [1]; in vivo | [2]; in vivo | [3]; in vivo | [4]; in vivo

CC1(C)N2OC2(c2cnc3ccccc3c2)c2cccc(F)c2C1(F)F (stereo not drawn) [Compound No. 2-135, 4,4,5-trifluoro-3,3-dimethyl-8b-quinolin-3-yl-4,8b-dihydro-3H-oxazireno[3,2-a]isoquinoline]
0: [1]; [5] | [2]; [6] | [3]; [7] | [4]; [8]

CC1(C)c2c(F)cccc2C2(c3cnc4ccccc4c3)ON2C1(C)C (stereo not drawn) [Compound No. 2-100, 5-fluoro-3,3,4,4-tetramethyl-8b-quinolin-3-yl-4,8b-dihydro-3H-oxazireno[3,2-a]isoquinoline]
0: [1]; [5] | [2]; [6] | [3]; [7] | [4]; [8]

CC1(C)c2c(F)cccc2C(c2cnc3ccccc3c2)=[N+]([O-])C1(C)C [Compound No. 3-100, 3-(5-fluoro-3,3,4,4-tetramethyl-2-oxido-3,4-dihydroisoquinolin-1-yl)quinoline]
0: [1]; in vivo | [2]; in vivo | [3]; in vivo | [4]; in vivo

CC1(C)[N+]([O-])=C(c2cnc3ccccc3c2)c2cccc(F)c2C1(F)F [Compound No. 3-135, 3-(4,4,5-trifluoro-3,3-dimethyl-2-oxido-3,4-dihydroisoquinolin-1-yl)quinoline]
0: [1]; in vivo | [2]; in vivo | [3]; in vivo | [4]; in vivo

CC1(C)N=C(c2cnc3c(F)cccc3c2)c2cccc(F)c2C1(C)C [Compound No. 1-918, 8-fluoro-3-(5-fluoro-3,3,4,4-tetramethyl-3,4-dihydroisoquinolin-1-yl)quinoline]
0: [1]; in vivo | [2]; in vivo | [3]; in vivo | [4]; in vivo

CC1(C)N=C(c2cnc3ccccc3c2)c2ccccc2C1(F)F [Compound No. 1-929, 3-(4,4-difluoro-3,3-dimethyl-3,4-dihydroisoquinolin-1-yl)quinoline]
0: [1]; in vivo | [2]; in vivo | [3]; in vivo | [4]; in vivo
